Publication PMC4612375, “Collapse of the native structure caused by a single amino acid exchange in human NAD(P)H:quinone oxidoreductase” (The FEBS journal, 2014)

B1: Human NAD(P)H:quinone oxidoreductase 1 (enzyme)
chain: not shown
notes: NAD(P)H:quinone oxidoreductase 1 (NQO1), human, UniProtKB/[…]; gene codon-optimized for E. coli and synthesized, cloned into pET28a (NdeI/XhoI); also called NQO1; WT; source: E. coli, purified (Ni-NTA HisTrap FF, Superdex 200 SEC)
B2: NQO1 P187S (enzyme)
chain: not shown
notes: NAD(P)H:quinone oxidoreductase 1 (NQO1), human, UniProtKB/[…], naturally occurring variant P187S (SNP C609T); made by site-directed mutagenesis of the pET28a construct; in the crystal no density for residues 1-3 (both protomers) and residue 274 (one protomer); also called P187S variant; NQO1*2 gene product; source: E. coli, purified (Ni-NTA HisTrap FF, Superdex 200 SEC)

Target: the molecule itself
Test: SEC; analytical Superdex-200 10/300 GL, 50 mM Hepes pH 7, 150 mM NaCl; 100 uL of ~300 uM protein injected, 0.5 mL/min; column calibrated with molecular mass standards

Protein | stoichiometry N
B1 | 2
B2 | 2
